Source: PubChem BioAssay (NCATS)
The shares of active, inactive and inconclusive entries below differ from those in the screen. Potencies of inconclusive entries are doubtful fits and often do not repeat. The source made the active and inactive calls. Calls come from the whole dose curve; as a rule, active = well fitted curve in the direction sought with a large enough effect; inconclusive = small, poorly fitted or top-dose-only effect, or another doubt; inactive = no such curve, though single readings can be large; an effect the other way counts as inactive or inconclusive.

Assays:
[1] = qHTS of pediatric cancer cell lines to identify multiple opportunities for drug repurposing: Primary screen for BT-37 cells (AID 1347094);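 for activity change, negative = cytotoxic: plate controls were DMSO for no effect and bortezomib for full effect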
Summary of the method: (§1)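 Cells seeded at 500-1,000 cells/well in growth media, rested 5 hours at 37 degrees C, 5% CO2, then dosed; MIPE compounds at 11-point (from 0.78 nM) and NPC at 8-point (from 0.59 nM) final concentrations. Viability by CellTiter-Glo luminescence after 48 hours.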

[2] = qHTS of pediatric cancer cell lines to identify multiple opportunities for drug repurposing: Primary screen for NB-EBc1 cells (AID 1347095);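 for activity change, negative = cytotoxic: plate controls were DMSO neutral control for no effect and bortezomib for full effect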
Summary of the method: as §1

[3] = qHTS of pediatric cancer cell lines to identify multiple opportunities for drug repurposing: Primary screen for BT-12 cells (AID 1347101); note: nearly all actives have a fitted effect of over 25% in size;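 for activity change, negative = cytotoxic: plate controls were DMSO for no effect and bortezomib positive control for full effect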
Summary of the method: (§2)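 Cells (500-1,000/well) rested 5 h, then received compounds for 48 h; metabolically active cells were measured by CellTiter-Glo luminescence. Final concentrations spanned up to 46 µM (MIPE, 11-point) or 0.59 nM-46 µM (NPC, 8-point) in primary screens, 11-point in follow-ups.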

[4] = qHTS of pediatric cancer cell lines to identify multiple opportunities for drug repurposing: Primary screen for Saos-2 cells (AID 1347097); settings: Saos-2 viability, CellTiter-Glo ATP luminescence, 48 h; activity change, negative = cytotoxic: at 46 µM (top of the series); note: nearly all actives have a fitted effect of over 40% in size; for activity change, negative = cytotoxic: % is set by controls: 0 for no effect and ±100 for the full control effect
Summary of the method: as §1

[5] = qHTS of pediatric cancer cell lines to identify multiple opportunities for drug repurposing: Primary screen for SK-N-SH cells (AID 1347098); note: nearly all actives have a fitted effect of over 65% in size;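 for activity change, negative = cytotoxic: DMSO served as neutral control and bortezomib at 2.3 µM as positive control; % is set by controls: 0 for no effect and ±100 for the full control effect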
Summary of the method: as §2

[6] = qHTS of pediatric cancer cell lines to identify multiple opportunities for drug repurposing: Primary screen for NB1643 cells (AID 1347099); note: nearly all actives have a fitted effect of over 50% in size
Summary of the method: as §1

[7] = qHTS of pediatric cancer cell lines to identify multiple opportunities for drug repurposing: Primary screen for U-2 OS cells (AID 1347096); note: nearly all actives have a fitted effect of over 50% in size;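 for activity change, negative = cytotoxic: plate controls were DMSO wells for no effect and bortezomib positive control wells for full effect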
Summary of the method: as §2

[8] = qHTS of pediatric cancer cell lines to identify multiple opportunities for drug repurposing: Primary screen for LAN-5 cells (AID 1347100); settings: LAN-5 neuroblastoma viability, CellTiter-Glo luminescence, 48 h; activity change, negative = cytotoxic: at 46 µM (top of the series);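 for activity change, negative = cytotoxic: plate controls were DMSO neutral control for no effect and bortezomib positive control for full effect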
Summary of the method: as §2
Potency is the fitted concentration of half-maximal effect; tags give direction and shape of the fitted curve.

C[N+]1(C)[C@@H]2C[C@@H](OC(=O)C(O)(c3cccs3)c3cccs3)C[C@H]1[C@@H]1O[C@@H]12
Potency [1]: inactive
Potency [2]: inactive
Potency [3]: inactive

O=C(O)c1cc(O)c2c(c1)C(=O)c1cccc(O)c1C2=O
Potency [1]: inactive
Potency [4]: inconclusive: 30.3 µM [cytotoxic, partial curve]
Potency [5]: inactive
Potency [6]: inconclusive: 30.3 µM [cytotoxic, partial curve]

Clc1ccc(C(Cn2ccnc2)OCc2ccc(Sc3ccccc3)cc2)c(Cl)c1 (centres undefined)
Potency [1]: inconclusive: 34.3 µM [cytotoxic, single point]
Potency [7]: inconclusive: 37.2 µM [cytotoxic, single point]
Potency [3]: inconclusive: 38.5 µM [cytotoxic, single point]

O=C(O)[C@@H](c1ccc(OCc2ccc3ccccc3n2)cc1)C1CCCC1
Potency [1]: inactive
Potency [2]: inconclusive: 33.2 µM [cytotoxic, single point]
Potency [5]: inactive
Potency [6]: inconclusive: 20.9 µM [cytotoxic, single point]

O=C1NC(=O)C(=Cc2ccc3nccnc3c2)S1
Potency [1]: inconclusive: 6.68 µM [cytotoxic, partial curve]
Potency [2]: active: 4.57 µM
Potency [4]: active: 8.12 µM
Potency [8]: inconclusive: 8.12 µM [cytotoxic, partial curve]
Potency [3]: inconclusive: 9.43 µM [cytotoxic, partial curve]

CCCCCNC(=O)N1CCC(CN(Cc2ccc(Cl)cc2)Cc2ccc([N+](=O)[O-])s2)C1 (centres undefined)
Potency [1]: inconclusive: 19.3 µM [cytotoxic, partial curve]
Potency [7]: inconclusive: 18.7 µM [cytotoxic, partial curve]
Potency [4]: inconclusive: 37.2 µM [cytotoxic, single point]
Potency [3]: inconclusive: 21.7 µM [cytotoxic, partial curve]

O=C(Nc1nc2ccccc2n1CCN1CCOCC1)c1cccc([N+](=O)[O-])c1
Potency [1]: active: 7.69 µM
Potency [7]: inactive
Potency [4]: inconclusive: 10.5 µM [cytotoxic, partial curve]
Potency [3]: active: 21.7 µM

CCOc1ccc(Cc2cc([C@@H]3O[C@H](CO)[C@@H](O)[C@H](O)[C@@H]3O)ccc2Cl)cc1
Potency [1]: inconclusive: 38.5 µM [cytotoxic, single point]
Potency [2]: inconclusive: 14.8 µM [cytotoxic, partial curve]
Potency [4]: inconclusive: 14.8 µM [cytotoxic, partial curve]
Potency [8]: inconclusive: 37.2 µM [cytotoxic, single point]
Potency [3]: inconclusive: 34.3 µM [cytotoxic, single point]

CC1(C)CCC2=C(O1)c1ccccc1C(=O)C2=O
Potency [1]: inconclusive: 30.6 µM [cytotoxic, single point]
Potency [4]: active: 18.7 µM
Potency [5]: inconclusive: 42.9 µM [cytotoxic, single point]
Potency [6]: active: 23.5 µM
Potency [8]: inconclusive: 37.2 µM [cytotoxic, single point]

Nc1ccc(-c2ccc3ncc4ccc(=O)n(-c5cccc(C(F)(F)F)c5)c4c3c2)cn1
Potency [1]: active: 0.0109 µM
Potency [7]: active: 1.48 µM
Potency [4]: active: 0.148 µM
Potency [6]: active: 0.418 µM
Potency [8]: active: 0.0296 µM

O=c1c(-c2ccc(O)cc2)coc2cc(O[C@@H]3O[C@H](CO)[C@H](O)[C@H](O)[C@H]3O)ccc12
Potency [1]: inactive
Potency [4]: inactive
Potency [5]: inactive

Cc1c(NC(=O)c2ccc(C(C)(C)C)cc2)cccc1-c1cn(C)c(=O)c(Nc2ccc(C(=O)N3CCOCC3)cc2)n1
Potency [1]: inconclusive: 21.7 µM [cytotoxic, partial curve]
Potency [7]: inconclusive: 14.8 µM [cytotoxic, partial curve, poor fit]
Potency [5]: inconclusive: 24.1 µM [cytotoxic, partial curve]
Potency [6]: inconclusive: 29.6 µM [cytotoxic, single point]
Potency [3]: inconclusive: 24.3 µM [cytotoxic, partial curve]

CN(C1CCc2c(c3ccccc3n2CC(=O)O)C1)S(=O)(=O)c1ccc(F)cc1 (centres undefined)
Potency [1]: inconclusive: 7.69 µM [cytotoxic, partial curve]
Potency [7]: inactive
Potency [4]: inactive
Potency [5]: inconclusive: 24.1 µM [cytotoxic, single point]
Potency [3]: inconclusive: 19.3 µM [cytotoxic, partial curve, poor fit]

COC(=O)C1=C(C)NC(C)=C(C(=O)OCCN2CCN(C(c3ccccc3)c3ccccc3)CC2)C1c1cccc([N+](=O)[O-])c1 (centres undefined)
Potency [1]: inconclusive: 24.6 µM [cytotoxic, single point]
Potency [2]: inconclusive: 29.9 µM [cytotoxic, single point]
Potency [5]: inconclusive: 38.6 µM [cytotoxic, single point]
Potency [3]: inconclusive: 9.78 µM [cytotoxic, partial curve]

COc1ccccc1OCC(O)CN1CCN(CC(=O)Nc2c(C)cccc2C)CC1 (centres undefined)
Potency [1]: inactive
Potency [7]: inactive
Potency [3]: inconclusive: 11 µM [cytotoxic, partial curve, poor fit]

Cc1nc(NC(=O)N2CCC[C@@H]2C(N)=O)sc1-c1ccnc(C(C)(C)C(F)(F)F)c1
Potency [1]: inconclusive: 21.7 µM [cytotoxic, partial curve]
Potency [2]: active: 1.48 µM
Potency [4]: inconclusive: 0.743 µM [cytotoxic, full curve]
Potency [5]: inconclusive: 17.1 µM [cytotoxic, partial curve]
Potency [8]: active: 5.9 µM
Potency [3]: inconclusive: 21.7 µM [cytotoxic, partial curve]

O[C@@H](COc1cccc2ncccc12)CN1CCN(C2c3ccccc3[C@@H]3[C@H](c4ccccc42)C3(F)F)CC1 (some centres undefined)
Potency [1]: inconclusive: 38.9 µM [cytotoxic, single point]
Potency [7]: inconclusive: 26.6 µM [cytotoxic, single point]
Potency [4]: inconclusive: 21.1 µM [cytotoxic, single point]

N#CC1(c2ccc(NC(=O)c3cccnc3NCc3ccncc3)cc2)CCCC1
Potency [1]: inconclusive: 10.9 µM [cytotoxic, partial curve, poor fit]
Potency [2]: inactive
Potency [4]: inconclusive: 18.7 µM [cytotoxic, partial curve]
Potency [3]: inconclusive: 21.7 µM [cytotoxic, partial curve]

Cc1cc(C=c2sc3nc4ccccc4n3c2=O)c(C)n1-c1ccccc1
Potency [1]: inconclusive: 5.44 µM [cytotoxic, partial curve, poor fit]
Potency [7]: inactive
Potency [4]: inconclusive: 13.2 µM [cytotoxic, partial curve, poor fit]
Potency [6]: inconclusive: 4.69 µM [cytotoxic, partial curve, poor fit]

COc1ccc(-c2cc(=O)c3c(O)cc(O)cc3o2)cc1O
Potency [2]: active: 11.8 µM
Potency [4]: active: 18.7 µM
Potency [3]: inconclusive: 19.3 µM [cytotoxic, partial curve, poor fit]

C=CCCCCCCCCC(=O)O
Potency [2]: inactive

CC1(C)CC(O)CC(C)(C)N1[O]
Potency [2]: inconclusive: 11.8 µM [cytotoxic, single point]
Potency [5]: inactive
Potency [8]: inactive
Potency [3]: inactive

c1ccc2c(c1)CCc1ccccc1N2
Potency [2]: inactive

CC1CN(c2cc3c(cc2F)c(=O)c(C(=O)O)cn3-c2ccc(F)cc2F)CCN1 (centres undefined)
activity change, negative = cytotoxic [1]: inactive: 1.04% [at 6.03 µM]
activity change, negative = cytotoxic [3]: inactive: -6.89% [at 6.03 µM]

CC(C)(C)OC(=O)CN(Cc1ccc(Cl)cc1)Cc1ccc([N+](=O)[O-])s1
Potency [2]: inconclusive: 20.9 µM [cytotoxic, single point]
Potency [4]: inconclusive: 29.6 µM [cytotoxic, single point]
Potency [6]: inconclusive: 16.6 µM [cytotoxic, partial curve]
Potency [3]: inconclusive: 24.3 µM [cytotoxic, single point]

OC1(c2ccc(Cl)cc2)CCNCC1
Potency [1]: inactive
Potency [5]: inactive

CN(C)c1ccc(C(=C2C=CC(=[N+](C)C)C=C2)c2ccccc2)cc1
Potency [2]: inconclusive: 29.9 µM [cytotoxic, single point]
Potency [7]: active: 1.33 µM
Potency [6]: active: 0.133 µM
Potency [8]: inconclusive: 33.5 µM [cytotoxic, single point]

O=c1c2ccccc2nc2n1CCc1c-2[nH]c2ccccc12
Potency [1]: inconclusive: 30.6 µM [cytotoxic, partial curve, poor fit]
Potency [3]: inconclusive: 27.3 µM [cytotoxic, partial curve, poor fit]

CC1=C(CO)C(=O)O[C@@H]([C@@H](C)[C@H]2CC[C@H]3[C@@H]4C[C@H]5O[C@]56[C@@H](O)C=CC(=O)[C@]6(C)[C@@H]4CC[C@]23C)C1
Potency [1]: active: 2.17 µM
Potency [4]: inconclusive: 0.187 µM [cytotoxic, full curve, poor fit]
Potency [5]: active: 3.41 µM
Potency [3]: active: 0.769 µM

COc1ccc(-c2oc3cc(OC)ccc3c2C(=O)c2ccc(C#N)cc2)cc1
Potency [1]: active: 0.685 µM
Potency [4]: inconclusive: 1.18 µM [cytotoxic, full curve, poor fit]
Potency [5]: active: 24.1 µM
Potency [6]: inconclusive: 2.64 µM [cytotoxic, full curve]
Potency [3]: active: 1.09 µM

Cc1cc2cc3c(C)cc(=O)oc3c(C)c2o1
Potency [1]: inconclusive: 9.68 µM [cytotoxic, single point]
Potency [4]: inconclusive: 14.8 µM [cytotoxic, partial curve]
Potency [3]: inactive

CCNC(=O)CCCC=CC[C@@H]1[C@H](C=CC(O)CCc2ccccc2)[C@@H](O)C[C@@H]1O (some centres undefined)
Potency [1]: inconclusive: 24.3 µM [cytotoxic, partial curve]
Potency [5]: inconclusive: 38.3 µM [cytotoxic, partial curve, poor fit]
Potency [6]: inconclusive: 23.5 µM [cytotoxic, single point]
Potency [8]: inconclusive: 9.35 µM [cytotoxic, partial curve]
Potency [3]: inconclusive: 17.2 µM [cytotoxic, partial curve, poor fit]
